Values quoted from earlier work as cited in patent publication US10987332B2, “Sprayable aqueous composition comprising glyceryl trinitrate” (G. POHL-BOSKAMP GMBH & CO. KG, priority 2013, dated 2021).

Experiments:
[1] = tested on: Sprague-Dawley rats; settings: 5 DAYS RIP; during 90 min FPO; mean±SD
[2] = tested on: Sprague-Dawley rats; settings: 5 DAYS RIP; during FPO; Lown classification
[3] = tested on: Sprague-Dawley rats; settings: 5 DAYS RIP; micro-CT; mean±SD

Row | Structure (SMILES) | ST segment elevation [1] | rats with class 0 arrhythmias [2] | rats with class IIIb arrhythmias [2] | rats with class IVb arrhythmias [2] | Collateral diameters of ROI [3]
1 | CC(=O)Oc1ccccc1C(=O)O [ASA, acetyl salicylic acid] | 0.138±0.098 mV |  |  |  | 
2 | O=[N+]([O-])O[C@H]1CO[C@H]2[C@@H]1OC[C@H]2O[N+](=O)[O-] [ISDN, isosorbide dinitrate] | 0.062±0.027 mV | 14.3% | 28.6% | 57.1% | 148.2±11.3 μm
